Data reported in the supplement of paper PMC4967469.
IC50 is the fitted dose that halves viability relative to control wells, and lower means more sensitive; a fit beyond the top or the lowest dose is shown as a bound at that dose. For AUC the same curve is integrated over the 256-fold range of doses and scaled to a fraction; values near 1 show little effect. For part of these data: A top dose marked as inferred is not printed in the source and was worked back from the curve model.

How the values were obtained:
Test in all cases: Viability of human cancer cell lines after 72 h of drug (GDSC screen)
PF-4708671 = compound: CCc1cncnc1N1CCN(Cc2nc3ccc(C(F)(F)F)cc3[nH]2)CC1 [PF-4708671]; conditions: top dose 10 µM; top dose inferred
Description: (§1)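 Human cancer cell lines in 384-well plates, medium with 10% serum, drug for 72 h over a 256-fold dose range (nine 2-fold or five 4-fold steps up to the top dose). Adherent lines were fixed and stained with the nucleic acid dye Syto60, suspension lines read with resazurin; signal relative to control wells, capped at 0 and 100%. One two-parameter sigmoid per drug and line, fitted in a mixed model over all curves with the slope shared within a line.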

HG-6-64-1 = compound: CCN1CCN(Cc2ccc(NC(=O)c3ccc(C)c(/C=C/c4cnc5[nH]ccc5c4OC)c3)cc2C(F)(F)F)CC1 [HG-6-64-1]; conditions: top dose 5.12 µM; top dose inferred
Description: as §1

Trametinib = compound: CC(=O)Nc1cccc(-n2c(=O)n(C3CC3)c(=O)c3c(Nc4ccc(I)cc4F)n(C)c(=O)c(C)c32)c1 [Trametinib]; conditions: top dose 1 µM
Description: as §1

I-BET-762 = compound: CCNC(=O)C[C@@H]1N=C(c2ccc(Cl)cc2)c2cc(OC)ccc2-n2c(C)nnc21 [I-BET-762]; conditions: top dose 20 µM; top dose inferred
Description: as §1

AV-951 = compound: COc1cc2nccc(Oc3ccc(NC(=O)Nc4cc(C)on4)c(Cl)c3)c2cc1OC [AV-951]; conditions: top dose 0.128 µM; top dose inferred
Description: as §1

KIN001-244 = compound: O=C(NC(COc1ccc2[nH]c(=O)[nH]c2c1)c1ccccc1)c1cccn(Cc2ccc(F)c(F)c2)c1=O [KIN001-244]; conditions: top dose 20 µM; top dose inferred
Description: as §1

Cell Line | AUC (PF-4708671) | IC50 (PF-4708671) [µM] | AUC (HG-6-64-1) | IC50 (HG-6-64-1) [µM] | AUC (Trametinib) | IC50 (Trametinib) [µM] | AUC (I-BET-762) | IC50 (I-BET-762) [µM] | AUC (AV-951) | IC50 (AV-951) [µM] | AUC (KIN001-244) | IC50 (KIN001-244) [µM]
SNU-423 (liver, adherent) | 0.983 | > 10 | 0.682 | 1.13 | 0.545 | 0.0845 | 0.941 | > 20 | 0.969 | > 0.128 | 0.801 | 11.8
SNU-449 (liver, adherent) | 0.966 | > 10 | 0.617 | 0.694 | 0.749 | 0.35 | 0.978 | > 20 | 0.986 | > 0.128 | 0.841 | 15.8
SNU-C2B (large intestine, adherent) | 0.925 | > 10 | 0.875 | > 5.12 | 0.728 | 0.349 | 0.783 | 11.4 | 0.976 | > 0.128 | 0.93 | > 20
SU8686 (pancreas, adherent) | 0.962 | > 10 | 0.884 | > 5.12 | 0.939 | > 1 | 0.957 | > 20 | 0.981 | > 0.128 | 0.954 | > 20
SU-DHL-5 (B-cell lymphoma, suspension) | 0.971 | > 10 | 0.546 | 0.413 | 0.132 | 0.00705 | 0.408 | 0.746 | 0.994 | > 0.128 | 0.844 | 9.4
SU-DHL-10 (B-cell lymphoma, suspension) | 0.991 | > 10 | 0.308 | 0.11 | 0.997 | > 1 | 0.415 | 0.778 | 0.998 | > 0.128 | 0.866 | 9.89
SUIT-2 (pancreas, adherent) | 0.942 | > 10 | 0.593 | 0.583 | 0.239 | 0.0106 | 0.543 | 1.65 | 0.984 | > 0.128 | 0.737 | 6.19
SW13 (adrenal gland, adherent) | 0.875 | > 10 | 0.748 | 1.67 | 0.727 | 0.278 | 0.988 | > 20 | 0.987 | > 0.128 | 0.968 | > 20
SW48 (large intestine, adherent) | 0.983 | > 10 | 0.84 | 3.51 | 0.462 | 0.0493 | 0.878 | > 20 | 0.987 | > 0.128 | 0.874 | 19.4
SW156 (kidney, adherent) | 0.883 | > 10 | 0.726 | 1.53 | 0.884 | > 1 | 0.986 | > 20 | 0.984 | > 0.128 | 0.894 | > 20
SW620 (large intestine, adherent) | 0.981 | > 10 | 0.858 | 3.44 | 0.236 | 0.0121 | 0.95 | > 20 | 0.99 | > 0.128 | 0.921 | > 20
SW626 (ovary, adherent) | 0.981 | > 10 | 0.761 | 2.14 | 0.234 | 0.00894 | 0.983 | > 20 | 0.964 | > 0.128 | 0.907 | > 20
SW756 (cervix, adherent) | 0.952 | > 10 | 0.941 | > 5.12 | 0.569 | 0.1 | 0.983 | > 20 | 0.984 | > 0.128 | 0.959 | > 20
SW837 (large intestine, adherent) | 0.941 | > 10 | 0.945 | > 5.12 | 0.615 | 0.143 | 0.879 | > 20 | 0.983 | > 0.128 | 0.916 | > 20
SW900 (lung squamous cell carcinoma, adherent) | 0.953 | > 10 | 0.834 | 4.1 | 0.492 | 0.0592 | 0.928 | > 20 | 0.984 | > 0.128 | 0.942 | > 20
SW948 (large intestine, adherent) | 0.982 | > 10 | 0.921 | > 5.12 | 0.889 | > 1 | 0.815 | 18.2 | 0.982 | > 0.128 | 0.91 | > 20
SW982 (soft tissue, adherent) | 0.948 | > 10 | 0.534 | 0.399 | 0.5 | 0.0623 | 0.819 | 11.9 | 0.977 | > 0.128 | 0.863 | 18.1
SW1088 (glioma, adherent) | 0.96 | > 10 | 0.727 | 1.74 | 0.728 | 0.343 | 0.972 | > 20 | 0.942 | > 0.128 | 0.933 | > 20
SW1271 (small cell lung carcinoma, adherent) | 0.975 | > 10 | 0.689 | 1.18 | 0.269 | 0.0123 | 0.798 | 11.2 | 0.984 | > 0.128 | 0.754 | 7.68
SW1417 (large intestine, adherent) | 0.979 | > 10 | 0.832 | 4.08 | 0.863 | > 1 | 0.914 | > 20 | 0.984 | > 0.128 | 0.93 | > 20
SW1463 (large intestine, adherent) | 0.959 | > 10 | 0.87 | > 5.12 | 0.397 | 0.0267 | 0.977 | > 20 | 0.977 | > 0.128 | 0.976 | > 20
SW1573 (lung adenocarcinoma, adherent) | 0.835 | > 10 | 0.649 | 0.958 | 0.714 | 0.315 | 0.981 | > 20 | 0.98 | > 0.128 | 0.974 | > 20
